# The campaign covered roughly 310,000 compounds. About 14,000 (4.5%) showed an effect of 50% or more. The effect is printed as a negative number. The list shows a part of the results. Where a SMILES comes first, the peptide text is derived from it. [ ]: non-standard residue; d: D form. The star is where a group is joined. ξ: configuration not given here. Cbz = O=C(OCc1ccccc1)*; ξP = O=C(O)C1CCCN1
# Biological target: human ether-à-go-go-related gene (hERG) potassium channel (human, UniProt Q12809)
# Sequence (Q12809 whole entry, looked up): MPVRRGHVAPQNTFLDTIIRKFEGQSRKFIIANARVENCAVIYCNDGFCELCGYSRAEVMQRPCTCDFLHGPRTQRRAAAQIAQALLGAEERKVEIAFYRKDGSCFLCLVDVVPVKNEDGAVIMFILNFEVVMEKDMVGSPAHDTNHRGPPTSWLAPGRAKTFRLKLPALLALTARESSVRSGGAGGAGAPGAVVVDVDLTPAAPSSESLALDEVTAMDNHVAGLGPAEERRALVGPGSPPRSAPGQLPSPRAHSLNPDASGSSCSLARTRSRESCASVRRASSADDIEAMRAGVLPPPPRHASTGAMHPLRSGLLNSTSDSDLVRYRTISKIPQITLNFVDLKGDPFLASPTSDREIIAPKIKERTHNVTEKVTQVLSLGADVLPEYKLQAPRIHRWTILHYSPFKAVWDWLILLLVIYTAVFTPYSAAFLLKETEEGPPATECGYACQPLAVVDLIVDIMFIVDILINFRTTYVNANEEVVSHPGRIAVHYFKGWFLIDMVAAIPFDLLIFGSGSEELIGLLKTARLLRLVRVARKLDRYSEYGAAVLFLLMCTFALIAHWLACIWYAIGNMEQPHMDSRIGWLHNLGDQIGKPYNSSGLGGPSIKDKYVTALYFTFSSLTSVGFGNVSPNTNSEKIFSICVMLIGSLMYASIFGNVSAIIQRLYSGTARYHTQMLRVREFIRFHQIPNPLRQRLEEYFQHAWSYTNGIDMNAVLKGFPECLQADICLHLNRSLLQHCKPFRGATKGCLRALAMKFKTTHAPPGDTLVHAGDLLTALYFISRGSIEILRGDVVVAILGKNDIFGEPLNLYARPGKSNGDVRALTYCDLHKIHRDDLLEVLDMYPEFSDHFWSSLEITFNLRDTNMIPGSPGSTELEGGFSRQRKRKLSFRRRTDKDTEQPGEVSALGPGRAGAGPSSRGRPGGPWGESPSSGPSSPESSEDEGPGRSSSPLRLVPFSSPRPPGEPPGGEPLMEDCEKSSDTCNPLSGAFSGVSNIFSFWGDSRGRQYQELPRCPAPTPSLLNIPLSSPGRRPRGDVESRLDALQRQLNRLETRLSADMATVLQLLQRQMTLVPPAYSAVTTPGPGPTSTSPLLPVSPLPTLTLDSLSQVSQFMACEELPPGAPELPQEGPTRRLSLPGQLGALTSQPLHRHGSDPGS
# Test: primary screen, population patch clamp on CHO cells stably expressing hERG
# 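Also: peak tail current of the secondary pulse compared with the same well before compound.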
row,SMILES,"hERG current change (%, negative = inhibition) at 10uM [%]"
1,Cn1c(=O)c2c(ncn2CC(=O)Nc2nnc(Cc3ccccc3)s2)n(C)c1=O,10.6
2,O=C1c2cnc3ncnn3c2CC2c3ccccc3CCN12 (centres unmarked),-29.6
3,Cc1ccc([N+](=O)[O-])cc1N=C(c1cccc([N+](=O)[O-])c1)N1CCOCC1,-26
4,CC1CN(C(=O)CCC(=O)NC2CCCCC2)c2ccccc2S1 (centres unmarked),-19.5
5,CC(=O)Nc1ccc(/C(C)=N\NC(=O)c2ccc(-c3ccccc3)cc2)cc1,-6.21
6,O=C(CN1C(=O)CSC1=O)Nc1ccc2c(c1)OCCO2,3.94
7,CC(C(=O)NC1CCCCC1)N1CCN(C)CC1.O=C(O)C(=O)O (centres unmarked),5.15
8,CCN(CC(=O)Nc1cc(Cl)ccc1C)C(=O)c1ccc2c(=O)n3c(nc2c1)CCC3,5.23
9,Cc1cccc(C(=O)NCC(=O)OCC(=O)N2CCc3ccccc32)c1,-14.4
10,COc1ccc(C(=O)NNC(=O)c2cc3cc(OC)ccc3oc2=O)cc1,1.79
11,Cc1nc2cc(NCc3nc4ccccc4n3Cc3ccccc3)ccc2n1C,-82
12,Cc1cccc(NC(=S)NCc2ccccc2)c1C,6.87
13,Cc1noc(C)c1COC(=O)C1COc2ccccc2O1 (centres unmarked),15.2
14,CC(Sc1ccccc1)C(=O)N1CCN(S(=O)(=O)c2ccc(Cl)cc2)CC1 (centres unmarked),-17.8
15,CC(C)(C)c1nnc(NC(=S)Nc2ccccc2)s1,10.5
16,Cc1c(C(=O)NCC2CCCO2)oc2ccc(S(=O)(=O)N3CC(C)CC(C)C3)cc12 (centres unmarked),6.02
17,Cn1cccc1CC(=O)N/N=C/C=C/c1ccccc1,5.92
18,COc1ccc(C(C)C)cc1S(=O)(=O)N1CC(C)OC(C)C1 (centres unmarked),1.99
19,C/C=C(\C)CN1CCCC(N(C)CCc2ccc(OC)c(OC)c2)C1 (centres unmarked),-27.5
20,CCC1CCCCN1CCCNC(=O)CN1C(=O)CSc2ccc(S(=O)(=O)N3CCOCC3)cc21 (centres unmarked),17.6
21,O=C(N/N=C/c1ccc(Br)o1)c1cc([N+](=O)[O-])cc([N+](=O)[O-])c1,-1.54
22,Cc1cc2nc(-c3cccc(NC(=O)c4ccc(Br)o4)c3)oc2cc1C,8.44
23,CC1CCN(c2cc(Br)c([N+](=O)[O-])cc2F)CC1,1.84

row,SMILES,"hERG current change (%, negative = inhibition) at 10uM [%]"
1,CCc1sc(C(=O)Nc2ccc(F)cc2C)cc1C,6.14
2,CCOC(=O)CNc1nc(Cl)nc(Nc2ccc(C)cc2)n1,5.46
3,O=C(CC(c1ccccc1)c1ccccc1O)N1CCCCC1 (centres unmarked),-3.29
4,O=C(O)CSCC(=O)Nc1ccc(C(=O)O)cc1,12.5
5,C=CCn1c(SCC(=O)Nc2ccc3c(c2)OCCO3)nnc1-c1ccco1,-63.3
6,CCN(CC)CCCNc1cc(C(F)(F)F)c(C#N)c2nc3ccccc3n12,-18.4
7,COc1cc(/C=C2\SC(=S)N(N(C)c3ccccc3)C2=O)ccc1O,3.66
8,COc1ccc(/C=C(\NC(=O)c2ccccc2)C(=O)NCCC(=O)O)cc1,26.3
9,CCn1c(C)c(C(=O)c2ccccc2)c(C#N)c1C(=O)O,-0.677
10,CCOc1cc(N2CCOCC2)c(OCC)cc1NC(=O)CSc1cccc[n+]1[O-],16.4
11,COc1ccc(N2CCN(Cc3ccc(Br)s3)CC2)cc1,-14.8
12,O=C(c1cccc(N2C(=O)C3C4C=CC(C4)C3C2=O)c1)N1CCN(c2ccc(F)cc2)CC1 (centres unmarked),-18.3
13,C#C[C@]1(O)CC[C@H]2[C@@H]3CCC4=CC(=O)CC[C@@H]4[C@H]3CC[C@@]21CC,6.58
14,CCOC(=O)C1CCN(Cc2c(O)c3ccccc3oc2=O)CC1,3.37
15,Cl.c1ccc2c(NCC3CCCO3)nc(N3CCCCC3)nc2c1 (centres unmarked),-72.9
16,COc1cccc(NC(=O)C2CCN(Cc3cnn(-c4ccccc4)c3-n3cccc3)CC2)c1,-45.5
17,CCOC(=O)C(NC(C)=O)C(OC(C)=O)c1cccc([N+](=O)[O-])c1 (centres unmarked),-4.49
18,c1ccc(-c2cc3c(N4CCN(c5ncccn5)CC4)ncnc3s2)cc1,22
19,COC(=O)CNC(=O)C1CCCN1C(=O)CNC(=O)OCc1ccccc1 (stereo not drawn) (Cbz-Gly-[ξP]-Gly-OMe),20.8
20,CCc1ccc(N(CC(=O)NC)S(C)(=O)=O)cc1,9.89
21,Cl.O=C(c1coc2ccc(O)c(CN3CCOCC3)c12)C1CC1,12.3
22,O=C(CCN1C(=O)C2CCCCC2C1=O)Nc1nc(-c2ccc(F)c(F)c2)cs1 (centres unmarked),-24.4
23,COCCOC(=O)C1=C(C)Nc2ncnn2C1c1ccc(F)cc1 (centres unmarked),-2.01

row,SMILES,"hERG current change (%, negative = inhibition) at 10uM [%]"
1,Cn1ccc(NC(=O)Nc2ccc(Cl)cc2)n1,17.4
2,O=C(NCCCN1CCOCC1)c1ccc(S(=O)(=O)N2CCOCC2)cc1,-12.3
3,CN(c1ccc(OCC(=O)N2CCCC2)cc1)S(=O)(=O)c1ccc(Cl)cc1,-42
4,CCc1ccc(OCC2Cn3c(nc4c3c(=O)[nH]c(=O)n4C)O2)cc1 (centres unmarked),4.83
5,CC(=O)c1c(N2CCN(c3ccccc3)CC2)nc(=S)n(-c2ccccc2)c1C,-20.1
6,COc1cc(NC(=S)Nc2ncccc2C)cc(OC)c1OC,15.5
7,CCc1cc2c(CN3CCN(C)CC3)cc(=O)oc2cc1O,20.1
8,O=C1C=C(c2ccc(F)cc2OCc2ccccc2)C[C@@H](c2ccc(F)cc2)C1,9.48
9,Cc1cccc(NC(=O)COC(=O)c2ccc3c(c2)OCO3)c1C,12.3
10,CC(=O)N1CCc2cc(S(=O)(=O)CCC(=O)N(C)Cc3ccco3)ccc21,14.8
11,Cc1nn(CCC#N)c2[nH]c(=O)cc(C(F)(F)F)c12,11.6
12,O=C(Nc1ncc([N+](=O)[O-])s1)c1cccs1,21.1
13,CCN1CCN(C(=S)Nc2ccc([N+](=O)[O-])cc2)CC1,-26.6
14,O=C(CN1C(=O)/C(=C/c2cccc(Br)c2)SC1=S)Nc1cccnc1,2.48
15,COc1ccc(OC(=O)c2cccc(S(=O)(=O)N3CC(C)OC(C)C3)c2)cc1 (centres unmarked),-24.9
16,COc1ccccc1CNC(=O)COC(=O)c1ncc(Cl)c(Cl)c1Cl,9.13
17,O=C(OCC(=O)N1N=C(c2ccc(Cl)cc2)CC1c1ccco1)c1ccccc1O (centres unmarked),11.6
18,CCc1ccc(CNC(=O)CCc2nnc(CCc3ccc(OC)cc3)o2)nc1,-42.5
19,CC1CCCC(NC(=O)COC(=O)COc2ccccc2Cl)C1C (centres unmarked),15.8
20,O=C(NCCc1ccccc1F)c1ccc2c(c1)OCCO2,6.59
21,CCOC(=O)[C@@H]1[C@H]2COc3cc(OC)ccc3[C@@H]2N2C(=O)N(c3ccc(Cl)cc3)C(=O)[C@]12C,-4.63
22,CCOc1ccccc1C(=O)NC(C)c1ccc(-n2ccnc2)cc1 (centres unmarked),-57.5
23,CCOC(=O)[C@@H]1[C@H]2COc3ccc(Br)cc3[C@H]2N2C(=O)N(c3cccc(Cl)c3)C(=O)[C@]12C,3.34

row,SMILES,"hERG current change (%, negative = inhibition) at 10uM [%]"
1,CCn1c(C)cs/c1=N\C(=S)Nc1ccccc1C,-9.03
2,CC1Cc2ccccc2N1Cc1nc2cc(Cl)ccc2c(=O)[nH]1 (centres unmarked),5.4
3,CCN(CC(=O)Nc1ccc2c(c1)OCCO2)CC(=O)Nc1ccc2c(c1)OCO2,28
4,O=C(OCC(=O)N(c1ccccc1)C1CCCCC1)c1ccc(CO)cc1,-0.154
5,COCc1[nH]nc2c1C1(C(=O)N(C)c3ccccc31)C(C#N)=C(N)O2 (centres unmarked),6.59
6,COC(=O)C1=C(C)N=C2SCCC(=O)N2C1c1cccs1 (centres unmarked),10.4
7,COc1cccc(NC(=O)C2C3C=CC(C3)C2C(=O)O)c1 (centres unmarked),8.61
8,O=C1/C(=C/c2cccs2)SC(=S)N1NS(=O)(=O)c1ccccc1,-18.2
9,COc1ccccc1NC(=O)c1csc2c1CCCC2,-8.98
10,COc1ccccc1CCC(=O)Oc1ccccc1C#N,1.39
11,Cc1nc2ccc(Cl)cn2c1C(=O)NN,10.9
12,COc1ccc2[nH]c3c(=O)n(Cc4ccc(C(=O)N5CCCC5)cc4)c(=S)[nH]c3c2c1,18.2
13,CCOc1ccccc1CNC(=O)Cn1c(=O)oc2ccccc21,9.29
14,CCS(=O)(=O)c1ccc2oc(SCC(=O)Nc3ccc(OC)cc3)nc2c1,30
15,COc1cccc(NC(=O)C(=S)NC2CCCCC2)c1,1.42
16,CC1CC(NC(=O)c2ncn[nH]2)CC(C)(C)C1 (centres unmarked),-10.1
17,CCOC(=O)c1ccccc1NC(=O)CSc1nc2ccncc2[nH]1,2.39
18,O=C(/C=C1\NC2(CCCC2)Cc2ccccc21)C(=O)N/N=C/c1ccc(O)c(O)c1,-21.8
19,Clc1ccccc1CSc1nncn1-c1cccnc1,1.94
20,CC1CCN(S(=O)(=O)c2cccc(C(=O)NCc3ccco3)c2)CC1,-48.1
